# Reference: PubChem BioAssay AID1468 (National Center for Advancing Translational Sciences (NCATS), 2008)
# “And” between values parts separate entries of the source, which are not always exact repeats. Identical values can stand only once. The campaign covered roughly 280,000 compounds. About 1,100 (0.39%) were called active. Inconclusive results, whose numbers are uncertain, are shown with a selection of clear calls. Calls follow the shape of the dose curve; as a rule, active = well fitted inhibition curve with a large enough effect; inconclusive = small, poorly fitted or top-dose-only effect, or effect the other way; inactive = flat fitted curve, though single readings scatter. A potency beside an inconclusive call is a rough fit, not a confirmed value.
# Biological target: Microtubule-associated protein tau (Homo sapiens) (UniProt P10636)
# Test: qHTS for Inhibitors of Tau Fibril Formation, Fluorescence Polarization; also: nearly all actives have a fitted effect of over 55% in size
# Settings: K18 P301L tau heparin fibrillization, Alexa594 FP, 6 h; series mostly up to 57.7 µM; activity, negative = inhibition: at the top concentration
# Summary of the method: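 Quantitative HTS format: compounds meet 15 uM recombinant K18 P301L tau and Alexa 594-tau tracer in 100 mM sodium acetate pH 7; 20 uM heparin triggers fibrillization at 37 C over 6 hr; FP gives the signal.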
# % is scaled to controls: 0 for no effect and ±100 for the full control effect; potency is read from the fitted curve at half-maximal effect; tags tell the direction and shape of the fitted curve.
# Chain of UniProt P10636 (P10636 whole entry, looked up): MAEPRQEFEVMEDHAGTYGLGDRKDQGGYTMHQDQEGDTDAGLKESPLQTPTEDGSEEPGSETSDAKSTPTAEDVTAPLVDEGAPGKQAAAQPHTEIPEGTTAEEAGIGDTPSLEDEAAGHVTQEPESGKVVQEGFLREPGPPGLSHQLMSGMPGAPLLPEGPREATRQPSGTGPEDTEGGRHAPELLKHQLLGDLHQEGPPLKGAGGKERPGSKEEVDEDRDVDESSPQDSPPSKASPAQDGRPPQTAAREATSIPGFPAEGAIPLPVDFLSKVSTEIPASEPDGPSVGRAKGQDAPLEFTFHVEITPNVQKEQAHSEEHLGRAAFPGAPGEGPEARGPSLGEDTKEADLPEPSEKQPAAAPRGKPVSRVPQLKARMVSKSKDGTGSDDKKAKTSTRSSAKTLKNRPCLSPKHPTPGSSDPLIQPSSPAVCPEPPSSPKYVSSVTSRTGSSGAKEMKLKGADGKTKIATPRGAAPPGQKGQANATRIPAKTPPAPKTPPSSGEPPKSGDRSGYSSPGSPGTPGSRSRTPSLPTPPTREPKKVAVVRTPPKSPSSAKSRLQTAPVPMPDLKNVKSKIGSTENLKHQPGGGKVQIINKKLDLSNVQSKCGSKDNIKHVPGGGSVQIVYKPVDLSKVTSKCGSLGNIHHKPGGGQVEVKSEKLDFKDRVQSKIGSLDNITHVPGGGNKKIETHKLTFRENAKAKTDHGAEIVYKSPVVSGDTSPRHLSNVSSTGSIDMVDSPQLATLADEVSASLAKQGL
SMILES,Potency,"activity, negative = inhibition"
CC(C)(S)[C@@H](N)C(=O)O,"inconclusive: 7.94 µM [inhibitor, full curve] and inconclusive: 12.6 µM [inhibitor, partial curve]",
CN1CCN(C(=O)CSc2nc(-c3ccco3)cc(C(F)(F)F)n2)CC1,"inconclusive: 7.94 µM [inhibitor, single point]",
CC(=O)c1cc(C#N)c(NCc2cc(-c3ccccc3)no2)nc1C,"inconclusive: 2.24 µM [inhibitor, partial curve, poor fit]",
CCN(CC(=O)Nc1c(C(=O)OC)[nH]c2ccc(Cl)cc12)c1ccc2c(c1)OCO2,,inactive: 11.8%
Cc1cccc(OCC(=O)Nc2ccc(Cl)c(-c3nc4ccccc4[nH]3)c2)c1,"inconclusive: 20 µM [inhibitor, partial curve]",
CCCOc1ccc(NC(=O)CC2C(=O)N(c3ccc(Cl)cc3)C(=O)N2CCc2ccncc2)cc1 (stereo not drawn),"inconclusive: 20 µM [inhibitor, single point]",
COc1cccc(C(=O)Nc2c(C(=O)c3ccc(F)cc3)oc3ccccc23)c1,"inconclusive: 8.91 µM [inhibitor, partial curve, poor fit]",
Cc1ccccc1Nc1cc(C(=O)NCCc2ccc(Cl)cc2)c2ccccc2n1,"inconclusive: 39.8 µM [inhibitor, single point]",
CC(=O)NC(Cc1ccccc1C)C(=O)NC1CCN(C(=O)c2cccc(C)c2)CC1 (stereo not drawn),,inactive: 6.29%
N#CNC(=Nc1cccc(C(F)(F)F)c1)SCc1ccc(C(=O)O)cc1,,inactive: -13.9%
CN(CCC#N)S(=O)(=O)c1ccc2[nH]cc(C(=O)NCCc3ccccc3)c(=O)c2c1,"inconclusive: 25.1 µM [inhibitor, single point]",
CCn1c2ccccc2c2cc(NC(=O)C(C)Oc3ccccc3)ccc21 (stereo not drawn),"inconclusive: 5.01 µM [activator, single point]",
O=C1/C(=C/c2cccnc2)CCC/C1=C\c1cccnc1,"inconclusive: 5.01 µM [inhibitor, partial curve]",
O=C(Cc1ccccc1)NC(NC(=S)Nc1cc(Cl)ccc1Cl)C(Cl)(Cl)Cl (stereo not drawn),"inconclusive: 6.31 µM [inhibitor, partial curve]",
COC(=O)[C@H](C)NC(=O)NCc1ccccc1,"inconclusive: 8.91 µM [inhibitor, single point]",
O=C(NC1=NCCS1)c1cccc2ccccc12,,inactive: -1.76%
Cc1cccc(OCCSc2nc3ccc(NC(=O)c4cccs4)cc3s2)c1,active: 7.08 µM,
CC(=O)c1ccc(NC(=O)c2ccc(NC(=O)CCS(=O)(=O)c3cccs3)cc2)cc1,"inconclusive: 3.55 µM [inhibitor, full curve] and inconclusive: 11.2 µM [inhibitor, partial curve]",
O=C(Nc1ccccc1-c1nnn(CC(=O)N2CCCc3ccccc32)n1)c1ccc(Cl)cc1,"inconclusive: 44.7 µM [inhibitor, single point]",
O=C(Nc1ccc2nc(SCC(=O)N3CCCC3)sc2c1)c1ccc(Br)cc1,"inconclusive: 8.91 µM [inhibitor, partial curve]",
Cc1ccc(NC(=O)c2cc(S(=O)(=O)N3CCCc4ccccc43)ccc2F)cc1F,"inconclusive: 14.1 µM [inhibitor, partial curve]",

SMILES,Potency,"activity, negative = inhibition"
NCC1CCC(C(=O)O)CC1 (stereo not drawn),,inactive: -5.43%
COCCn1c(=NC(=O)c2ccc(S(=O)(=O)N3CCc4ccccc4C3)cc2)sc2cc(S(N)(=O)=O)ccc21,"inconclusive: 35.5 µM [inhibitor, single point]",
O=S(=O)(c1ccccc1)c1nc(-c2cccs2)oc1SCc1ccccc1Cl,"inconclusive: 11.2 µM [inhibitor, partial curve]",
CNC(=S)N/N=C/c1cn(Cc2c(F)cccc2Cl)c2ccccc12,"inconclusive: 11.2 µM [activator, partial curve]",
N#CCSc1nnc(COc2cccc3ccccc23)n1-c1cccc(Cl)c1,,inactive: 10.9%
CCn1c(=O)sc2cc(NC(=O)c3cccc(OC)c3)ccc21,,inactive: 5.55%
CCOC(=O)c1ccc(N=c2ssnc2Cl)cc1,"inconclusive: 28.2 µM [inhibitor, partial curve, poor fit]",
COc1ccc2[nH]c3ccc(OC)cc3c2c1,"inconclusive: 1.41 µM [activator, partial curve]",
O=C(CCN1C(=O)COc2ccccc21)NCCN1CCc2ccccc2C1,,inactive: 2.57%
O=C(/C=C/c1cccc([N+](=O)[O-])c1)NC(=S)Nc1cccc(NC(=O)c2ccccc2Cl)c1,,inactive: -2.01%
CCC(=O)OCCNc1cc(SCCC(=O)OC)c2nonc2c1[N+](=O)[O-],"inconclusive: 22.4 µM [inhibitor, partial curve, poor fit]",
CN(/N=C/c1ccc(C(C)(C)C)cc1)C1=NCCN1,"inconclusive: 3.55 µM [inhibitor, single point]",
CC(C)(C)OC(=O)[C@H](Cc1ccccc1)NC(=O)c1nc[nH]c1C(=O)N[C@@H](Cc1ccccc1)C(=O)OC(C)(C)C,"inconclusive: 14.1 µM [inhibitor, partial curve]",
COc1cc(C/C=C/c2ccccc2)c(OC)cc1O,"inconclusive: 39.8 µM [inhibitor, single point]",
CCN(c1ccccc1)S(=O)(=O)c1ccc(NC(=O)c2cc(=O)c3cc(C)ccc3o2)cc1,"inconclusive: 15.8 µM [inhibitor, partial curve]",
COc1cc(C(=O)Nc2nc3c(s2)Cc2c(Br)ccc(OC)c2-3)cc(OC)c1OC,,inactive: -10.3%
CCOc1ccc(/C=N/NC(=O)c2c(-c3ccccc3)noc2C)cc1,"inconclusive: 39.8 µM [inhibitor, single point]",
Cc1cccc(NC(=O)c2c(NC(=O)c3ccccc3)sc3c2CCCC3)c1,"inconclusive: 10 µM [inhibitor, partial curve]",
S=C(Nc1cccnc1)Nc1cccc2cnccc12,"inconclusive: 20 µM [inhibitor, partial curve, poor fit]",
N=c1oc2ccccc2cc1-c1nc(-c2ccc(Cl)cc2)cs1,"inconclusive: 17.8 µM [inhibitor, single point]",
N#CC1=C2SCN(c3ccc(F)cc3)CN2C(=O)CC1c1cccc(F)c1 (stereo not drawn),"inconclusive: 28.2 µM [inhibitor, partial curve]",

SMILES,Potency,"activity, negative = inhibition"
O=S(=O)(c1ccc(Br)cc1)c1nnn2c1nc(Nc1cccc(C(F)(F)F)c1)c1sccc12,"inconclusive: 17.8 µM [inhibitor, partial curve, poor fit]",
COC(=O)c1c(C)sc(-c2c(-c3ccc4c(c3)OCCO4)[nH]c3[nH]c(=O)[nH]c(=O)c23)c1O,"inconclusive: 2.51 µM [activator, partial curve]",
CCOC(=O)N1CCC(N2Cc3cccc(C(=O)Nc4cccc(F)c4)c3C2=O)CC1,"inconclusive: 5.01 µM [inhibitor, single point]",
CCc1ccc(Nc2nnc(SCC(=O)Nc3sccc3C(N)=O)s2)cc1,"inconclusive: 10 µM [inhibitor, single point]",
CCOC(=O)N1CCN(Cc2nc3c(c(=O)[nH]c(=O)n3C)n2CCCc2ccccc2)CC1,,inactive: -0.342%
Cc1cc(C)c2c(n1)nn1c(C)c(CCC(=O)NCc3ccccc3Cl)c(C)nc21,,inactive: 8.42%
CCCn1c(CN2CCN(C(=O)OCC)CC2)nc2c1c(=O)n(C)c(=O)n2C,,inactive: 3.23%
Cc1c(NC(=O)c2ccc3c(c2)OCO3)cccc1-c1nc2ccccc2s1,"inconclusive: 0.316 µM [inhibitor, full curve, poor fit]",
C[n+]1cccc2cccc([O-])c21,"inconclusive: 15.8 µM [inhibitor, partial curve]",
Cc1ccc(S(=O)(=O)CCC(=O)N2CCN(c3ccc(Cl)cc3)CC2)cc1,,inactive: 7.76%
COc1ccccc1NC(=O)CN1C(=O)CC(c2ccc(C)c(C)c2)=Nc2ccccc21,"inconclusive: 0.251 µM [inhibitor, full curve, poor fit]",
CCOc1ccc(C2C3=C(Nc4nc(N)[nH]c(=O)c42)c2ccccc2C3=O)cc1 (stereo not drawn),"inconclusive: 20 µM [activator, single point]",
CNS(=O)(=O)c1ccc(N2CCCC2)c([N+](=O)[O-])c1,"inconclusive: 0.316 µM [inhibitor, full curve, poor fit]",
COc1cc(/C=C2\CC/C(=C\c3ccc(OCCO)c(OC)c3)C2=O)ccc1OCCO,"inconclusive: 44.7 µM [inhibitor, single point]",
FC(F)(F)c1ccccc1NC(=S)Nc1cccc2cnccc12,"inconclusive: 12.6 µM [inhibitor, partial curve]",
C=CCn1c(=NC(=O)c2ccc(S(=O)(=O)N3CCCc4ccccc43)cc2)sc2cc(S(N)(=O)=O)ccc21,"inconclusive: 31.6 µM [inhibitor, single point]",
Cc1ccc(NC(=O)c2c(C(=O)Nc3ccccc3)sc3nc(C)cc(=O)n23)c(C)c1,"inconclusive: 4.47 µM [inhibitor, full curve]",
CN(C)CCCn1c(N)c(S(=O)(=O)c2ccccc2)c2nc3ccccc3nc21,"inconclusive: 7.94 µM [inhibitor, single point]",
CCOC(=O)c1[nH]c2cc(OC)c(OC)cc2c1NC(=O)CN1CCN(c2ccc(OC)cc2)C(C)C1 (stereo not drawn),"inconclusive: 20 µM [activator, partial curve]",
Cc1ccc(CNC(=O)Cn2ncc3c([nH]c4ccc(C)cc43)c2=O)cc1,,inactive: -9.23%
C=CCNC(=O)c1ccccc1NC(=O)c1ccc(Cl)c(S(=O)(=O)Nc2cc(C)ccc2C)c1,"inconclusive: 17.8 µM [inhibitor, partial curve]",
